Assay results from patent US20210340213A1 (BEIJING VDJBIO, published 2021).

T1: CD80 (UniProt P33681 35-242, limits assumed)
T1 construct: also called B7-1
T1 sequence (looked up): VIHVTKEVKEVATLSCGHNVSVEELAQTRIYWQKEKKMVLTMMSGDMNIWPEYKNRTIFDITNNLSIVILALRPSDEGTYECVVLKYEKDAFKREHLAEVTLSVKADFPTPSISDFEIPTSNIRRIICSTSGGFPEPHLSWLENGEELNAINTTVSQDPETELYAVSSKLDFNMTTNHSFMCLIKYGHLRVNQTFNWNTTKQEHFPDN

T2: CD86 (UniProt P42081 24-247, limits assumed)
T2 construct: also called B7-2
T2 sequence (looked up): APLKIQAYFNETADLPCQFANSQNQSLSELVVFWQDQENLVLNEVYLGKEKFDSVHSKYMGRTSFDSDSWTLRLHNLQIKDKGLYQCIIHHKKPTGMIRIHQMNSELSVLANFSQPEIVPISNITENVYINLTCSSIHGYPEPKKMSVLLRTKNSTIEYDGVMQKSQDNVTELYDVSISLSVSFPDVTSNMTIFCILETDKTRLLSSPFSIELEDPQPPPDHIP

B1: CTLA4-Ig variant 75# (Fc fusion)
chain: MHVAQPAVVLASSRGIASFVCEYASPDKAKATEVRVTVLRQADSQVTEVCAATYMMGNELTFLDDSICTFTSSGNQVNLTIQGLRAMDTGLYICKVELMYPPPYYLGIGNGTQIYVIDPEPCPDSDQ[human IgG1 Fc with changes not given here]
B2: CTLA4-Ig variant 133# (Fc fusion)
chain: MHVAQPAVVLASSRGIASFVCEYASPDKAKATEVRVTVLRQADSQVTEVCAATYMMGNELTFLDDSICTFTSSGNQVNLTIQGLRAMDTGLYICMVELMYPPPYYLGIGNGTQIYVIDPEPCPDSDQ[human IgG1 Fc with changes not given here]
B3: CTLA4-Ig variant 142# (Fc fusion)
chain: MHVAQPAVVLASSRGIASFVCEYASPDKAKATEVRVTVLRQTDSQVTEVCAATYMMGNELTFLDDSICTFTSSGNQVNLTIQGLRAMDTGLYICMVELMYPPPYYLGIGNGTQIYVIDPEPCPDSDQ[human IgG1 Fc with changes not given here]

Assays:
CD80 [1] = biological target: T1, CD80; test: SPR BIAcore 3000, 25 C; CTLA4-Ig on chip, CD80 analyte
CD86 [2] = biological target: T2, CD86; test: SPR BIAcore 3000, 25 C; CTLA4-Ig on chip, CD86 analyte
CD80 [3] = biological target: T1, CD80; test: SPR BIAcore 3000, 25 C; CTLA4-Ig on chip, CD80 analyte; remark: listed apart in the source
CD86 [4] = biological target: T2, CD86; test: SPR BIAcore 3000, 25 C; CTLA4-Ig on chip, CD86 analyte; remark: listed apart in the source
CD80 [5] = biological target: T1, CD80; test: SPR BIAcore 3000, 25 C; CTLA4-Ig on chip, CD80 analyte; remark: listed apart in the source
CD86 [6] = biological target: T2, CD86; test: SPR BIAcore 3000, 25 C; CTLA4-Ig on chip, CD86 analyte; remark: listed apart in the source
CD80 [7] = biological target: T1, CD80; test: SPR at pH 7.4 and pH 6.0; CD80 analyte
CD86 [8] = biological target: T2, CD86; test: SPR at pH 7.4 and pH 6.0; CD86 analyte
CD80 [9] = biological target: T1, CD80; test: SPR as in Example 1, pH 6.0; CD80 analyte
CD80 [10] = biological target: T1, CD80; test: SPR as in Example 1, pH 7.4; CD80 analyte
CD86 [11] = biological target: T2, CD86; test: SPR as in Example 1, pH 6.0; CD86 analyte
CD86 [12] = biological target: T2, CD86; test: SPR as in Example 1, pH 7.4; CD86 analyte
CD80 [13] = biological target: T1, CD80; test: SPR BIAcore 3000, 25 C; CTLA4-Ig on chip, CD80 analyte; remark: listed apart in the source
CD86 [14] = biological target: T2, CD86; test: SPR BIAcore 3000, 25 C; CTLA4-Ig on chip, CD86 analyte; remark: listed apart in the source

Binder | Kd (CD80 [5]) [nM] | Relative affinity (KD(abatacept)/KD(variant)) (CD80 [5]) | koff (CD80 [5]) [s⁻¹] | kon (CD80 [5]) [M⁻¹ s⁻¹] | Kd (CD86 [6]) [nM] | Relative affinity (KD(abatacept)/KD(variant)) (CD86 [6]) | koff (CD86 [6]) [s⁻¹] | kon (CD86 [6]) [M⁻¹ s⁻¹] | pH dependence (Fold of affinity decrease), KD pH 6.0 / KD pH 7.4 (CD80 [7]) [fold] | pH dependence (Fold of affinity decrease), KD pH 6.0 / KD pH 7.4 (CD86 [8]) [fold] | Kd (CD80 [9]) [nM] | koff (CD80 [9]) [s⁻¹] | kon (CD80 [9]) [M⁻¹ s⁻¹] | Kd (CD80 [10]) [nM] | koff (CD80 [10]) [s⁻¹] | kon (CD80 [10]) [M⁻¹ s⁻¹] | Kd (CD86 [11]) [nM] | koff (CD86 [11]) [s⁻¹] | kon (CD86 [11]) [M⁻¹ s⁻¹] | Kd (CD86 [12]) [nM] | further results
B1 | 0.0595 | 50.2 | 2.26e-05 | 380000 | 0.699 | 10 | 0.000319 | 457000 |  |  |  |  |  |  |  |  |  |  |  |  | Kd (CD80 [1]): 0.787 nM; Relative affinity (KD(abatacept)/KD(variant)) (CD80 [1]): 26.8; koff (CD80 [1]): 0.000201 s⁻¹; kon (CD80 [1]): 255000 M⁻¹ s⁻¹; Kd (CD86 [2]): 5.07 nM; Relative affinity (KD(abatacept)/KD(variant)) (CD86 [2]): 51.9; koff (CD86 [2]): 0.00258 s⁻¹; kon (CD86 [2]): 508000 M⁻¹ s⁻¹; Kd (CD80 [3]): 0.786 nM; Relative affinity (KD(abatacept)/KD(variant)) (CD80 [3]): 13.6; koff (CD80 [3]): 0.000167 s⁻¹; kon (CD80 [3]): 213000 M⁻¹ s⁻¹; Kd (CD86 [4]): 7.72 nM; Relative affinity (KD(abatacept)/KD(variant)) (CD86 [4]): 10.7; koff (CD86 [4]): 0.00399 s⁻¹; kon (CD86 [4]): 517000 M⁻¹ s⁻¹
B2 | 0.0674 | 44.4 | 2.28e-05 | 338000 | 0.497 | 14.1 | 0.000179 | 360000 | 3.94 | 7.48 | 0.335 | 0.000107 | 319000 | 0.0849 | 3.02e-05 | 356000 | 2.99 | 0.00133 | 445000 | 0.4 | koff (CD86 [12]): 0.000161 s⁻¹; kon (CD86 [12]): 404000 M⁻¹ s⁻¹; Kd (CD80 [13]): 0.0849 nM; koff (CD80 [13]): 3.02e-05 s⁻¹; kon (CD80 [13]): 356000 M⁻¹ s⁻¹; Kd (CD86 [14]): 0.4 nM; koff (CD86 [14]): 0.000161 s⁻¹; kon (CD86 [14]): 404000 M⁻¹ s⁻¹
B3 |  |  |  |  |  |  |  |  | 3.01 | 48.7 | 0.2 | 6.04e-05 | 302000 | 0.0664 | 2.31e-05 | 348000 | 1.72 | 0.000636 | 371000 | 0.0353 | koff (CD86 [12]): 1.22e-05 s⁻¹; kon (CD86 [12]): 347000 M⁻¹ s⁻¹; Kd (CD80 [13]): 0.0664 nM; koff (CD80 [13]): 2.31e-05 s⁻¹; kon (CD80 [13]): 348000 M⁻¹ s⁻¹; Kd (CD86 [14]): 0.0353 nM; koff (CD86 [14]): 1.22e-05 s⁻¹; kon (CD86 [14]): 347000 M⁻¹ s⁻¹

Read-outs that look alike come from different tables or passages of the source.
